Data as given in PMC9911399, “Two distinct binding modes provide the RNA-binding protein RbFox with extraordinary sequence specificity”.
Residue numbers refer to the chain shown, from its start. The list shows a part of the results.

T1: RBFOX1 RRM (Homo sapiens, UniProt Q9NWB1 109-208)
T1 sequence: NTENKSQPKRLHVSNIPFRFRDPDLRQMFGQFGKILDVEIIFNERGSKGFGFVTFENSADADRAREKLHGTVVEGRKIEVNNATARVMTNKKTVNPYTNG

B1: AAAUCUC (DNA:RNA)
RNA: GGGAGACCGGAAUUCAGAUUGUCCAAAUCUCUUAAAUCCCGUCGUAGCCACCA
DNA 1: CAATCTGAATTCCGGTCTCCC
DNA 2: TGGTGGCTACGACGGGATT
B2: CUACUGA (DNA:RNA)
RNA: B1 RNA with A25C, A26U, U28C, C29U, U30G, C31A
DNA 1: CAATCTGAATTCCGGTCTCCC
DNA 2: TGGTGGCTACGACGGGATT
B3: GCCUGUA (DNA:RNA)
RNA: B1 RNA with A25G, A26C, A27C, C29G, C31A
DNA 1: CAATCTGAATTCCGGTCTCCC
DNA 2: TGGTGGCTACGACGGGATT
B4: UCGGACA (DNA:RNA)
RNA: GGGAGACCGGAAUUCAGAUUGUCCUCGGACAUUAAAUCCCGUCGUAGCCACCA
DNA 1: CAATCTGAATTCCGGTCTCCC
DNA 2: TGGTGGCTACGACGGGATT
B5: UGACAAG (DNA:RNA)
RNA: B4 RNA with C26G, G27A, G28C, C30A, A31G
DNA 1: CAATCTGAATTCCGGTCTCCC
DNA 2: TGGTGGCTACGACGGGATT
B6: GCACAGC (DNA:RNA)
RNA: B1 RNA with A25G, A26C, U28C, C29A, U30G
DNA 1: CAATCTGAATTCCGGTCTCCC
DNA 2: TGGTGGCTACGACGGGATT
B7: ACGGAGA (DNA:RNA)
RNA: B4 RNA with U25A, C30G
DNA 1: CAATCTGAATTCCGGTCTCCC
DNA 2: TGGTGGCTACGACGGGATT
B8: CUAUCAC (DNA:RNA)
RNA: B1 RNA with A25C, A26U, U30A
DNA 1: CAATCTGAATTCCGGTCTCCC
DNA 2: TGGTGGCTACGACGGGATT
B9: UCAGACU (DNA:RNA)
RNA: B4 RNA with G27A, A31U
DNA 1: CAATCTGAATTCCGGTCTCCC
DNA 2: TGGTGGCTACGACGGGATT

molecular target: T1, RBFOX1 RRM; assay: EMSA; HiTS-Eq, 1 nM pool, 10 min; buffer printed only for the single-RNA assays: 10 mM Tris pH 7.5, 150 mM NaCl, 3.4 mM EDTA, 0.001% NP-40, 30 C; details: tags: His6 N-terminal (pET28a); label: 5' 32P
In short: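 Purified RbFox RRM, wild type or mutant, was incubated for 10 min in 50 µL with 1 nM of a 5′-radiolabelled RNA pool carrying 7 randomized nucleotides, whose flanks were annealed to DNA oligonucleotides, over a series of increasing protein concentrations. Unbound RNA was resolved on 8% native PAGE, cut out, reverse-transcribed, barcoded by PCR and sequenced on an Illumina HiSeq 2500. Relative association constants were derived from changes in read counts for each RNA species versus the control reaction and normalised to the cognate motif.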

Compared with B1, B2 is higher in binding signal: 0.00195 KA relative to UGCAUGU for the first, 0.0107 KA relative to UGCAUGU for the second.

First: B3
Second: B4
The binding signal of the first is higher: 0.0203 KA relative to UGCAUGU for the first, 0.00225 KA relative to UGCAUGU for the second.

First: B5
Second: B6
The binding signal of the first is higher: 0.0143 KA relative to UGCAUGU for the first, 0.00984 KA relative to UGCAUGU for the second.

First: B7
Second: B8
The binding signal of the first is higher: 0.00666 KA relative to UGCAUGU for the first, 0.00478 KA relative to UGCAUGU for the second.

For B9, the binding signal was 0.00739 KA relative to UGCAUGU.
